Experimental data from the supplement of paper PMC4604168 (melanoma cell lines).
Some of the results follow. Many values rest on one well or one pass, so single values are uncertain.
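Note: cells treated in 1,536-well plates, then fixed and DAPI-stained, with nuclei counted from automated high-throughput microscope images.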

Each compound was assayed on SkMel28 (assay: cell count relative to DMSO control; melanoma cells; higher = more viable cells). Details: library dose: standard library concentration; 72 h.
For `CS(=O)(=O)CCNCc1ccc(-c2ccc3ncnc(Nc4ccc(OCc5cccc(F)c5)c(Cl)c4)c3c2)o1` [lapatinib] + COc1cc2ncnc(Nc3ccc(Oc4ccccc4)cc3)c2cc1OC [SrcI1] (first compound 4 µM, partner dose 10 µM), the cell count was 41.7%. Compound `CNC(=O)c1cc(Oc2ccc(NC(=O)Nc3ccc(Cl)c(C(F)(F)F)c3)cc2)ccn1` [sorafenib] + COc1ccc2c(c1)CCC1C2CCC2(C)C(NCCCCCCN3C(=O)C=CC3=O)CCC12 [U73122] (first compound 2 µM, partner dose 2 µM) has a cell count of 76.3%. Work on `CNC(=O)c1cc(Oc2ccc(NC(=O)Nc3ccc(Cl)c(C(F)(F)F)c3)cc2)ccn1` [sorafenib] + Cc1cc([N+](=O)[O-])ccc1NS(=O)(=O)c1cc(Cl)ccc1Cl [FH535] (first compound 2 µM, partner dose 5 µM) yielded a cell count of 41.2%. In the case of `CN1CCN(c2ccc3nc(-c4c(N)c5c(F)cccc5[nH]c4=O)[nH]c3c2)CC1` [Dovitinib] + CCc1ccc(CCOc2ccc(CC3SC(=O)NC3=O)cc2)nc1 [pioglitazone] (first compound 0.5 µM, partner dose 10 µM), the cell count is reported as 51.8%. `C=CCNC1=C2C[C@@H](C)C[C@H](OC)[C@H](O)[C@@H](C)/C=C(\C)[C@H](OC(N)=O)[C@@H](OC)/C=C\C=C(/C)C(=O)NC(=CC1=O)C2=O` [Tanespimycin] + N#Cc1c(O)c2c(-c3ccc(-c4ccccc4O)cc3)csc2[nH]c1=O [A769662] (first compound 0.01 µM, partner dose 10 µM) was tested, and the cell count was 66.3%.
